Reference: US7166622B2, “Substituted phenylsulfonamide inhibitors of beta amyloid production” (Wyeth, priority 2002, dated 2007)
Several values for one entry are separate records, joined by “and”; a condition that tells them apart may be missing. Equal values may be shown once. The name of at least one read-out is uncertain.

Test system: beta amyloid production
Assay: Repressor Release Assay (RRA)
Format: cell-based
Settings: for APPI Fold Increase: luciferase activity over diluent control; for APPI % of Example #98: relative to Example 98
Procedure, shortened: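 Read-out is luciferase luminescence (RLU) after 36-48 h duplicate compound exposure of transfected CHO-K1 cells. These cells carry transiently introduced APP-lacI and pRSVO-luc DNA. Diluent control was 25 mM Hepes/1% DMSO; toxicity recorded as binary score (1 non-toxic, 0 toxic).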

| SMILES | APPI % of Example #98 (Conc 10 μg/ml) | other results |
| --- | --- | --- |
| CCCCCC(O)(CCCCC)[C@@H](NS(=O)(=O)c1ccc(F)cc1)[C@@H](C)CC [Example 237, 4-fluoro-N-{(1S)-2-hydroxy-1-[(1S)-1-methylpropyl]-2-pentylheptyl}benzenesulfonamide] | 207.45% and 119.8% | APPI Fold Increase (Conc 10 μg/ml): 3.8 fold |
| CCCCC(O)(CCCC)[C@@H](NS(=O)(=O)c1ccc(F)cc1)[C@@H](C)CC [Example 238, N-{(1S)-2-butyl-2-hydroxy-1-[(1S)-1-methylpropyl]hexyl}-4-fluorobenzenesulfonamide] | 154.18% | – |
| CC[C@H](C)[C@H](NS(=O)(=O)c1ccc(F)cc1)C(O)(C(C)C)C(C)C [Example 239, 4-fluoro-N-{(1S)-2-hydroxy-2-isopropyl-3-methyl-1-[(1S)-1-methylpropyl]butyl}benzenesulfonamide] | 52.99% | – |
| CC[C@H](C)[C@H](NS(=O)(=O)c1ccc(F)cc1)C(O)(CC(C)C)CC(C)C [Example 240, 4-fluoro-N-{(1S)-2-hydroxy-2-isobutyl-4-methyl-1-[(1S)-1-methylpropyl]pentyl}benzenesulfonamide] | 131.15% | – |
| CC[C@H](C)[C@H](NS(=O)(=O)c1ccc(F)cc1)C(O)(CC)CC [Example 242, N-{(1S)-2-ethyl-2-hydroxy-1-[(1S)-1-methylpropyl]butyl}-4-fluorobenzenesulfonamide] | 73.53% | – |
| C=C(C)C(O)(C(=C)C)[C@@H](NS(=O)(=O)c1ccc(F)cc1)[C@@H](C)CC [Example 243, 4-fluoro-N-{(1S)-2-hydroxy-2-isopropenyl-3-methyl-1-[(1S)-1-methylpropyl]-3-butenyl}benzenesulfonamide] | 78.07% | – |
| C/C=C(\C)C(O)(/C(C)=C/C)[C@@H](NS(=O)(=O)c1ccc(F)cc1)[C@@H](C)CC (stereo partly drawn) [Example 245, 4-fluoro-N-{(1S,3E)-2-hydroxy-3-methyl-2-[(1E)-1-methyl-1-propenyl]-1-[(1S)-1-methylpropyl]-3-pentenyl}benzenesulfonamide] | 94.29% | APPI % of Example #98 (Conc 20 μg/ml): 95.1% |
| C=CCCC(O)(CCC=C)[C@@H](NS(=O)(=O)c1ccc(F)cc1)[C@@H](C)CC [Example 246, N-{(1S)-2-(3-butenyl)-2-hydroxy-1-[(1S)-1-methylpropyl]-5-hexenyl}-4-fluorobenzenesulfonamide] | 111.39% | APPI % of Example #98 (Conc 20 μg/ml): 50.9% |
| CC[C@H](C)[C@H](NS(=O)(=O)c1ccc(F)cc1)C(O)(c1ccc(N(C)C)cc1)c1ccc(N(C)C)cc1 [Example 247, N-{(1S,2S)-1-[bis[4-(dimethylamino)phenyl](hydroxy)methyl]-2-methylbutyl}-4-fluorobenzenesulfonamide] | 57.33% | – |
| CCCCCCC(O)(CCCCCC)[C@@H](NS(=O)(=O)c1cccc(Cl)c1)[C@@H](C)CC [Example 249, 3-chloro-N-{(1S)-2-hexyl-2-hydroxy-1-[(1S)-1-methylpropyl]octyl}benzenesulfonamide] | 58.4% | – |
| CCCCCC(O)(CCCCC)[C@@H](NS(=O)(=O)c1cccc(Cl)c1)[C@@H](C)CC [Example 250, 3-chloro-N-{(1S)-2-hydroxy-1-[(1S)-1-methylpropyl]-2-pentylheptyl}benzenesulfonamide] | 72.2% | – |
| CCCCC(O)(CCCC)[C@@H](NS(=O)(=O)c1cccc(Cl)c1)[C@@H](C)CC [Example 251, N-{(1S)-2-butyl-2-hydroxy-1-[(1S)-1-methylpropyl]hexyl}-3-chlorobenzenesulfonamide] | 103.5% | – |
| CC[C@H](C)[C@H](NS(=O)(=O)c1cccc(Cl)c1)C(O)(CC(C)C)CC(C)C [Example 252, 3-chloro-N-{(1S)-2-hydroxy-2-isobutyl-4-methyl-1-[(1S)-1-methylpropyl]pentyl}benzenesulfonamide] | 53.8% | – |
| CC[C@H](C)[C@H](NS(=O)(=O)c1cccc(Cl)c1)C(O)(c1ccccc1)c1ccccc1 [Example 253, 3-chloro-N-{(1S,2S)-1-[hydroxy(diphenyl)methyl]-2-methylbutyl}benzenesulfonamide] | 59.95% | – |
| CC[C@H](C)[C@H](NS(=O)(=O)c1cccc(Cl)c1)C(O)(CC)CC [Example 255, 3-chloro-N-{(1S)-2-ethyl-2-hydroxy-1-[(1S)-1-methylpropyl]butyl}benzenesulfonamide] | 75.56% | – |
| CC[C@H](C)[C@H](NS(=O)(=O)c1cccc(Cl)c1)C(O)(c1ccc(OC)cc1)c1ccc(OC)cc1 [Example 258, 3-chloro-N-((1S,2S)-1-{hydroxy [bis(4-methoxyphenyl)]methyl}-2-methylbutyl)benzenesulfonamide] | 63.9% | – |

| SMILES | APPI % of Example #98 (Conc 10 μg/ml) | other results |
| --- | --- | --- |
| C=CCCC(O)(CCC=C)[C@@H](NS(=O)(=O)c1cccc(Cl)c1)[C@@H](C)CC [Example 260, N-{(1S)-2-(3-butenyl)-2-hydroxy-1-[(1S)-1-methylpropyl]-5-hexenyl}-3-chlorobenzenesulfonamide] | 231.76% | APPI % of Example #98 (Conc 3 μg/ml): 26.7% |
| CCCCCC(O)(CCCCC)[C@@H](NS(=O)(=O)c1ccccc1F)[C@@H](C)CC [Example 262, 2-fluoro-N-{(1S)-2-hydroxy-1-[(1S)-1-methylpropyl]-2-pentylheptyl}benzenesulfonamide] | 63.8% | – |
| CC[C@H](C)[C@H](NS(=O)(=O)c1ccccc1F)C(O)(c1ccccc1)c1ccccc1 [Example 263, 2-fluoro-N-{(1S,2 S)-1-[hydroxy (diphenyl)methyl]-2-methylbutyl}benzenesulfonamide] | 58.4% | – |
| C=CCC(O)(CC=C)[C@@H](NS(=O)(=O)c1ccccc1F)[C@@H](C)CC [Example 264, N-{(1S)-2-allyl-2-hydroxy-1-[(1S)-1-methylpropyl]-4-pentenyl}-2-fluorobenzenesulfonamide] | 74.18% | – |
| CC[C@H](C)[C@H](NS(=O)(=O)c1ccccc1F)C(O)(CC)CC [Example 265, N-{(1S)-2-ethyl-2-hydroxy-1-[(1S)-1-methylpropyl]butyl}-2-fluorobenzenesulfonamide] | 66.02% | – |
| CC[C@H](C)[C@H](NS(=O)(=O)c1ccccc1F)C(O)(c1ccc(F)cc1)c1ccc(F)cc1 [Example 266, N-{(1S,2S)-1-[bis(4-fluorophenyl)(hydroxy)methyl]-2-methylbutyl}-2-fluorobenzenesulfonamide] | 58.25% | – |
| C=C(C)C(O)(C(=C)C)[C@@H](NS(=O)(=O)c1ccccc1F)[C@@H](C)CC [Example 268, 2-fluoro-N-{(1S)-2-hydroxy-2-isopropenyl-3-methyl-1-[(1S)-1-methylpropyl]-3-butenyl}benzenesulfonamide] | 65.06% | – |
| CC[C@H](C)[C@H](NS(=O)(=O)c1ccccc1F)C(O)(c1ccc(OC)cc1)c1ccc(OC)cc1 [Example 269, 2-fluoro-N-((1S,2S)-1-{hydroxy[bis(4-methoxyphenyl)]methyl}-2-methylbutyl)benzenesulfonamide] | 58.74% | – |
| C/C=C(\C)C(O)(/C(C)=C/C)[C@@H](NS(=O)(=O)c1ccccc1F)[C@@H](C)CC (stereo partly drawn) [Example 270, 2-fluoro-N-{(1S,3E)-2-hydroxy-3-methyl-2-[(1E)-1-methyl-1-propenyl]-1-[(1S)-1-methylpropyl]-3-pentenyl}benzenesulfonamide] | 69.21% | – |
| C=CCCC(O)(CCC=C)[C@@H](NS(=O)(=O)c1ccccc1F)[C@@H](C)CC [Example 271, N-{(1S)-2-(3-butenyl)-2-hydroxy-1-[(1S)-1-methylpropyl]-5-hexenyl}-2-fluorobenzenesulfonamide] | 67.61% | – |
| O=S(=O)(N[C@H](CO)C1CCCCC1)c1ccc(Cl)cc1 [Example 272, 4-Chloro-N-[(1S)-1-cyclohexyl-2-hydroxyethyl]benzenesulfonamide] | – | APPI % of Example #98 (Conc 20 μg/ml): 81.3% |
| O=S(=O)(N[C@H](CO)c1ccccc1)c1ccc(Cl)cc1 [Example 273, 4-Chloro-N-[(1S)-2-hydroxy-1-phenylethyl]benzenesulfonamide] | – | APPI % of Example #98 (Conc 20 μg/ml): 38.7% |
| CC(C)[C@@H](CO)NS(=O)(=O)c1ccc(Cl)cc1 [Example 274, 4-Chloro-N-[(1S)-1-(hydroxymethyl)-2-methylpropyl]benzenesulfonamide] | – | APPI Fold Increase (Conc 20 μg/ml): 2.4 fold; APPI % of Example #98 (Conc 20 μg/ml): 44.8% and 43.2% |
| CC(C)[C@@H](CO)NS(=O)(=O)c1ccc(Br)cc1 [Example 275, 4-Bromo-N-[(1S)-1-(hydroxymethyl)-2-methylpropyl]benzenesulfonamide] | – | APPI Fold Increase (Conc 20 μg/ml): 1.8 fold; APPI % of Example #98 (Conc 20 μg/ml): 41.9% and 32.5% |
| CC[C@H](C)[C@@H](CO)NS(=O)(=O)c1ccc(I)cc1 [Example 276, 4-Iodo-N-[(1S,2S)-1-(hydroxymethyl)-2-methylbutyl]benzenesulfonamide] | – | APPI Fold Increase (Conc 20 μg/ml): 2.1 fold; APPI % of Example #98 (Conc 20 μg/ml): 46.3% and 73.4% |
| CC(C)(C)[C@@H](CO)NS(=O)(=O)c1ccc(Cl)cc1 [Example 277, 4-Chloro-N-[(1S)-1-(hydroxymethyl)-2,2-dimethylpropyl]benzenesulfonamide] | – | APPI % of Example #98 (Conc 20 μg/ml): 53.4% |
